Measured values published in the supplement of paper PMC8728848.
Some of the results follow.

Tests used:
Assay in all cases: glycan array binding signal (z-score within array); higher = stronger binding
Conditions in all cases: glycan notation: IUPAC condensed, linker removed
[1] = molecular target: Neu5Ac(a2-3)Gal(b1-4)GlcNAc(b1-2)[Neu5Ac(a2-3)Gal(b1-4)GlcNAc(b1-4)]Man(a1-3)[GlcNAc(b1-4)][Neu5Ac(a2-3)Gal(b1-4)GlcNAc(b1-4)Man(a1-6)]Man(b1-4)GlcNAc(b1-4)GlcNAc
Procedure, shortened: (§1)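 The binding signal is a Z-score computed within each array and averaged over linkers. Arrays of the same protein sequence at different concentrations or buffers were also averaged together. Data originate from 3228 arrays in the Consortium for Functional Glycomics database, kept only where the protein sequence was available.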

[2] = molecular target: Neu5Ac(a2-3)Gal(b1-4)GlcNAc(b1-2)[Neu5Ac(a2-3)Gal(b1-4)GlcNAc(b1-6)]Man(a1-6)[Neu5Ac(a2-3)Gal(b1-4)GlcNAc(b1-2)Man(a1-3)]Man(b1-4)GlcNAc(b1-4)GlcNAc
Procedure, shortened: as §1

[3] = molecular target: Neu5Ac(a2-3)Gal(b1-4)GlcNAc(b1-2)[Neu5Ac(a2-3)Gal(b1-4)GlcNAc(b1-6)]Man(a1-6)[Neu5Ac(a2-3)Gal(b1-4)GlcNAc(b1-2)Man(a1-3)][GlcNAc(b1-4)]Man(b1-4)GlcNAc(b1-4)GlcNAc
Procedure, shortened: as §1

[4] = molecular target: Neu5Ac(a2-3)Gal(b1-4)GlcNAc(b1-3)Gal
Procedure, shortened: as §1

[5] = molecular target: Neu5Ac(a2-3)Gal(b1-4)GlcNAc(b1-3)Gal(b1-3)GlcNAc
Procedure, shortened: as §1

[6] = molecular target: Neu5Ac(a2-3)Gal(b1-4)GlcNAc(b1-3)Gal(b1-4)GlcNAc
Procedure, shortened: as §1

[7] = molecular target: Neu5Ac(a2-3)Gal(b1-4)GlcNAc(b1-3)Gal(b1-4)GlcNAc(b1-2)Man(a1-3)[Neu5Ac(a2-3)Gal(b1-4)GlcNAc(b1-3)Gal(b1-4)GlcNAc(b1-2)Man(a1-6)]Man(b1-4)GlcNAc(b1-4)GlcNAc
Procedure, shortened: as §1

[8] = molecular target: Neu5Ac(a2-3)Gal(b1-4)GlcNAc(b1-3)Gal(b1-4)GlcNAc(b1-3)Gal(b1-4)GlcNAc
Procedure, shortened: as §1

[9] = molecular target: Neu5Ac(a2-3)Gal(b1-4)GlcNAc(b1-3)Gal(b1-4)GlcNAc(b1-3)Gal(b1-4)GlcNAc(b1-2)Man(a1-3)[Neu5Ac(a2-3)Gal(b1-4)GlcNAc(b1-3)Gal(b1-4)GlcNAc(b1-3)Gal(b1-4)GlcNAc(b1-2)Man(a1-6)]GalNAc
Procedure, shortened: as §1

[10] = molecular target: Neu5Ac(a2-3)Gal(b1-4)GlcNAc(b1-3)Gal(b1-4)GlcNAc(b1-3)GalNAc
Procedure, shortened: as §1

[11] = molecular target: Neu5Ac(a2-3)Gal(b1-4)GlcNAc(b1-3)Gal(b1-4)GlcNAc(b1-3)[Neu5Ac(a2-3)Gal(b1-4)GlcNAc(b1-3)Gal(b1-4)GlcNAc(b1-6)]GalNAc
Procedure, shortened: as §1

[12] = molecular target: Neu5Ac(a2-3)Gal(b1-4)GlcNAc(b1-3)Gal(b1-4)GlcNAc(b1-6)[Gal(b1-3)]GalNAc
Procedure, shortened: as §1

[13] = molecular target: Neu5Ac(a2-3)Gal(b1-4)GlcNAc(b1-3)Gal(b1-4)[Fuc(a1-3)]GlcNAc
Procedure, shortened: as §1

[14] = molecular target: Neu5Ac(a2-3)Gal(b1-4)GlcNAc(b1-3)GalNAc
Procedure, shortened: as §1

[15] = molecular target: Neu5Ac(a2-3)Gal(b1-4)GlcNAc(b1-3)[Neu5Ac(a2-3)Gal(b1-4)GlcNAc(b1-6)]GalNAc
Procedure, shortened: as §1

[16] = molecular target: Neu5Ac(a2-3)Gal(b1-4)GlcNAc(b1-6)GalNAc
Procedure, shortened: as §1

[17] = molecular target: Neu5Ac(a2-3)Gal(b1-4)GlcNAc(b1-6)[Gal(b1-3)]GalNAc
Procedure, shortened: as §1

[18] = molecular target: Neu5Ac(a2-3)Gal(b1-4)GlcNAc(b1-6)[Neu5Ac(a2-3)Gal(b1-3)]GalNAc
Procedure, shortened: as §1

[19] = molecular target: Neu5Ac(a2-3)Gal(b1-4)GlcNAc6S
Procedure, shortened: as §1

[20] = molecular target: Neu5Ac(a2-3)Gal(b1-4)[Fuc(a1-3)]GlcNAc
Procedure, shortened: as §1

[21] = molecular target: Neu5Ac(a2-3)Gal(b1-4)[Fuc(a1-3)]GlcNAc(b1-2)Man
Procedure, shortened: as §1

[22] = molecular target: Neu5Ac(a2-3)Gal(b1-4)[Fuc(a1-3)]GlcNAc(b1-3)Gal
Procedure, shortened: as §1

[23] = molecular target: Neu5Ac(a2-3)Gal(b1-4)[Fuc(a1-3)]GlcNAc(b1-3)Gal(b1-4)GlcNAc
Procedure, shortened: as §1

[24] = molecular target: Neu5Ac(a2-3)Gal(b1-4)[Fuc(a1-3)]GlcNAc(b1-3)Gal(b1-4)[Fuc(a1-3)]GlcNAc(b1-3)Gal(b1-4)[Fuc(a1-3)]GlcNAc
Procedure, shortened: as §1

[25] = molecular target: Neu5Ac(a2-3)Gal(b1-4)[Fuc(a1-3)]GlcNAc(b1-3)GalNAc
Procedure, shortened: as §1

[26] = molecular target: Neu5Ac(a2-3)Gal(b1-4)[Fuc(a1-3)]GlcNAc(b1-6)[Gal(b1-3)]GalNAc
Procedure, shortened: as §1

[27] = molecular target: Neu5Ac(a2-3)Gal(b1-4)[Fuc(a1-3)]GlcNAc(b1-6)[Neu5Ac(a2-3)Gal(b1-3)]GalNAc
Procedure, shortened: as §1

[28] = molecular target: Neu5Ac(a2-3)Gal(b1-4)[Fuc(a1-3)]GlcNAc6S
Procedure, shortened: as §1

[29] = molecular target: Neu5Ac(a2-3)Gal6S(b1-4)GlcNAc
Procedure, shortened: as §1

[30] = molecular target: Neu5Ac(a2-3)Gal6S(b1-4)[Fuc(a1-3)]GlcNAc
Procedure, shortened: as §1

Neu5Ac(a2-3)GalNAc = molecular target: Neu5Ac(a2-3)GalNAc
Procedure, shortened: as §1

[31] = molecular target: Neu5Ac(a2-3)GalNAc(b1-4)GlcNAc
Procedure, shortened: as §1

[32] = molecular target: Neu5Ac(a2-3)[GalNAc(b1-4)]Gal(b1-4)Glc
Procedure, shortened: as §1

[33] = molecular target: Neu5Ac(a2-3)[GalNAc(b1-4)]Gal(b1-4)GlcNAc
Procedure, shortened: as §1

[34] = molecular target: Neu5Ac(a2-3)[GalNAc(b1-4)]Gal(b1-4)GlcNAc(b1-3)GalNAc
Procedure, shortened: as §1

[35] = molecular target: Neu5Ac(a2-3)[Neu5Ac(a2-6)]GalNAc
Procedure, shortened: as §1

Neu5Ac(a2-6)Gal = molecular target: Neu5Ac(a2-6)Gal
Procedure, shortened: as §1

[36] = molecular target: Neu5Ac(a2-6)Gal(b1-3)GlcNAc(b1-3)[Gal(b1-4)GlcNAc(b1-6)]Gal(b1-4)Glc
Procedure, shortened: as §1

Neu5Ac(a2-6)Gal(b1-4)Glc = molecular target: Neu5Ac(a2-6)Gal(b1-4)Glc
Procedure, shortened: as §1

[37] = molecular target: Neu5Ac(a2-6)Gal(b1-4)GlcNAc
Procedure, shortened: as §1

[38] = molecular target: Neu5Ac(a2-6)Gal(b1-4)GlcNAc(b1-2)Man
Procedure, shortened: as §1

[39] = molecular target: Neu5Ac(a2-6)Gal(b1-4)GlcNAc(b1-2)Man(a1-3)Man(b1-4)GlcNAc(b1-4)GlcNAc
Procedure, shortened: as §1

[40] = molecular target: Neu5Ac(a2-6)Gal(b1-4)GlcNAc(b1-2)Man(a1-3)[Gal(b1-4)GlcNAc(b1-2)Man(a1-6)]Man(b1-4)GlcNAc(b1-4)GlcNAc
Procedure, shortened: as §1

[41] = molecular target: Neu5Ac(a2-6)Gal(b1-4)GlcNAc(b1-2)Man(a1-3)[GlcNAc(b1-2)Man(a1-6)]Man(b1-4)GlcNAc(b1-4)GlcNAc
Procedure, shortened: as §1

[42] = molecular target: Neu5Ac(a2-6)Gal(b1-4)GlcNAc(b1-2)Man(a1-3)[GlcNAc(b1-4)][Neu5Ac(a2-6)Gal(b1-4)GlcNAc(b1-2)Man(a1-6)]Man(b1-4)GlcNAc(b1-4)GlcNAc
Procedure, shortened: as §1

B1: AT1G15820(NC) (Arabidopsis thaliana) (protein)
chain: MAMAVSGAVLSGLGSSFLTGGKRGATALASGVGDAIAPFSFGSLLGTQLLLMGWVESKRWVDFFNPDSQSVEWATPWSKTAENFANYTGDQGYPGGRFFDPLGLAGKNRDGVYEPDFEKLERLKLAEIKHSRLAMVAMLIFYFEAGQGKTPLGALGL
**Q.** For B1, which “glycan array binding signal (z-score)” value [1] is on record?
**A.** -0.277

**Q.** And the “glycan array binding signal (z-score)” value [2]?
**A.** -0.3

**Q.** What about the “glycan array binding signal (z-score)” value [3] of the same binder?
**A.** -0.198

**Q.** And the “glycan array binding signal (z-score)” value [4]?
**A.** -0.662

**Q.** And the “glycan array binding signal (z-score)” value [5]?
**A.** 0.253

**Q.** And the “glycan array binding signal (z-score)” value [6]?
**A.** -0.86

**Q.** What about the “glycan array binding signal (z-score)” value [7] of the same binder?
**A.** 1.8

**Q.** What about the “glycan array binding signal (z-score)” value [8] of the same binder?
**A.** -0.284

**Q.** What about the “glycan array binding signal (z-score)” value [9] of the same binder?
**A.** 0.549

**Q.** What about the “glycan array binding signal (z-score)” value [10] of the same binder?
**A.** -0.331

**Q.** And the “glycan array binding signal (z-score)” value [11]?
**A.** -0.185

**Q.** And the “glycan array binding signal (z-score)” value [12]?
**A.** -0.089

**Q.** And the “glycan array binding signal (z-score)” value [13]?
**A.** -0.36

**Q.** And the “glycan array binding signal (z-score)” value [14]?
**A.** -0.367

**Q.** And the “glycan array binding signal (z-score)” value [15]?
**A.** -0.604

**Q.** And the “glycan array binding signal (z-score)” value [16]?
**A.** -0.611

**Q.** What about the “glycan array binding signal (z-score)” value [17] of the same binder?
**A.** -0.488

**Q.** And the “glycan array binding signal (z-score)” value [18]?
**A.** -0.383

**Q.** And the “glycan array binding signal (z-score)” value [19]?
**A.** -0.18

**Q.** What about the “glycan array binding signal (z-score)” value [20] of the same binder?
**A.** -0.371

**Q.** And the “glycan array binding signal (z-score)” value [21]?
**A.** -0.437

**Q.** And the “glycan array binding signal (z-score)” value [22]?
**A.** -0.225

**Q.** What about the “glycan array binding signal (z-score)” value [23] of the same binder?
**A.** 0.294

**Q.** And the “glycan array binding signal (z-score)” value [24]?
**A.** -0.32

**Q.** And the “glycan array binding signal (z-score)” value [25]?
**A.** 2.9

**Q.** And the “glycan array binding signal (z-score)” value [26]?
**A.** 0.282

**Q.** And the “glycan array binding signal (z-score)” value [27]?
**A.** 1.64

**Q.** What about the “glycan array binding signal (z-score)” value [28] of the same binder?
**A.** -0.211

**Q.** What about the “glycan array binding signal (z-score)” value [29] of the same binder?
**A.** -0.177

**Q.** And the “glycan array binding signal (z-score)” value [30]?
**A.** -0.474

**Q.** What about the “glycan array binding signal (z-score)” value (Neu5Ac(a2-3)GalNAc) of the same binder?
**A.** -0.722

**Q.** What about the “glycan array binding signal (z-score)” value [31] of the same binder?
**A.** 0.125

**Q.** And the “glycan array binding signal (z-score)” value [32]?
**A.** -0.218

**Q.** And the “glycan array binding signal (z-score)” value [33]?
**A.** -0.475

**Q.** And the “glycan array binding signal (z-score)” value [34]?
**A.** 0.125

**Q.** And the “glycan array binding signal (z-score)” value [35]?
**A.** 0.083

**Q.** And the “glycan array binding signal (z-score)” value (Neu5Ac(a2-6)Gal)?
**A.** -0.407

**Q.** And the “glycan array binding signal (z-score)” value [36]?
**A.** -0.089

**Q.** What about the “glycan array binding signal (z-score)” value (Neu5Ac(a2-6)Gal(b1-4)Glc) of the same binder?
**A.** -0.637

**Q.** What about the “glycan array binding signal (z-score)” value [37] of the same binder?
**A.** -0.363

**Q.** What about the “glycan array binding signal (z-score)” value [38] of the same binder?
**A.** -0.411

**Q.** And the “glycan array binding signal (z-score)” value [39]?
**A.** -0.358

**Q.** What about the “glycan array binding signal (z-score)” value [40] of the same binder?
**A.** -0.457

**Q.** And the “glycan array binding signal (z-score)” value [41]?
**A.** -0.052

**Q.** What about the “glycan array binding signal (z-score)” value [42] of the same binder?
**A.** -0.578
